# Among all 350,000 compounds or so, about 31,000 (8.9%) were called active. The shares of active, inactive and inconclusive entries below differ from those in the screen. Calls come from the whole dose curve; as a rule, active = well fitted inhibition curve with a large enough effect; inconclusive = small, poorly fitted or top-dose-only effect; inactive = no such curve, though single readings can be large or run the other way. Potencies of inconclusive entries are doubtful fits and often do not repeat.
# Target: Histone-lysine N-methyltransferase EHMT2 (Homo sapiens) (UniProt Q96KQ7)
# Assay: qHTS Assay for Inhibitors of Histone Lysine Methyltransferase G9a; note: nearly all actives have a fitted effect of over 75% in size
# Conditions: G9a H3K9 monomethylation, AlphaScreen, 2 h; activity, negative = inhibition: at 59 µM (top of the series) unless noted
# In short: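 G9a (20 nM) preincubated 15 min RT with compounds, then 500 nM biotinylated H3K9 peptide and 20 uM SAM added; 2 h RT reaction. Monomethyl-H3K9 product detected by AlphaScreen with anti-H3K9me1 antibody, streptavidin donor and anti-rabbit IgG acceptor beads.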
# % is set by controls: 0 for no effect and ±100 for the full control effect; potency is the fitted concentration of half-maximal effect; tags give direction and shape of the fitted curve.
# UniProt Q96KQ7, sequence (Q96KQ7 whole entry, looked up): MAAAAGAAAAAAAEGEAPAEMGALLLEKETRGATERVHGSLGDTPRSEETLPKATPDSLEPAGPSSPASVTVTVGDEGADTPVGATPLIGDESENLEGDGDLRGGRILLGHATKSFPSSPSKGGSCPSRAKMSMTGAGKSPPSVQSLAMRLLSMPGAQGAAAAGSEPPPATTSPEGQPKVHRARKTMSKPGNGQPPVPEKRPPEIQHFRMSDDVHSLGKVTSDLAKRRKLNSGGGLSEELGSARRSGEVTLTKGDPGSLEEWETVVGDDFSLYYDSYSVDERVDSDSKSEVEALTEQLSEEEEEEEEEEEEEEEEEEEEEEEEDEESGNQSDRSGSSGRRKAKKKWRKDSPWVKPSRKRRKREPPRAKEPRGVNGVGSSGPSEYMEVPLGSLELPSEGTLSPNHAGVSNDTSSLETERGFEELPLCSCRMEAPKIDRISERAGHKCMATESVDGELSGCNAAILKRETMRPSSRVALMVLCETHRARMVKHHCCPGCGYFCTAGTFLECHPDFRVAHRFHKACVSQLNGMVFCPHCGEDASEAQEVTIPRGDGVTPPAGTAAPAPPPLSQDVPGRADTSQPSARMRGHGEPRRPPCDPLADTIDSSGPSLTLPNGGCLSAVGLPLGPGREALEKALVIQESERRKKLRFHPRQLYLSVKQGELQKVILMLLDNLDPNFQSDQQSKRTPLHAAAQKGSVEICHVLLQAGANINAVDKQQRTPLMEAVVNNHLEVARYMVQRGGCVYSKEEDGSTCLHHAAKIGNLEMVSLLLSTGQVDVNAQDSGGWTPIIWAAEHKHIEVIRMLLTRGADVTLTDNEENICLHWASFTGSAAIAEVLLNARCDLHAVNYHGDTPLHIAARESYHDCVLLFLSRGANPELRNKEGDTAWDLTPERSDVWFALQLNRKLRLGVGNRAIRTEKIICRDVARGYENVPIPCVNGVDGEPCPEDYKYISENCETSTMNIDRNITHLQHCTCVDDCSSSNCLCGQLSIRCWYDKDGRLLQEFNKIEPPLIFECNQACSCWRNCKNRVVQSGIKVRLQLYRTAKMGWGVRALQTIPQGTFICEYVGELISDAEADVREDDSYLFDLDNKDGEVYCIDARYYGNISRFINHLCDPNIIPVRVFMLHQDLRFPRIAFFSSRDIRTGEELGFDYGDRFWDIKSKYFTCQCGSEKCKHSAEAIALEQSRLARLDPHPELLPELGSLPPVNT
Structure (SMILES),Potency,"activity, negative = inhibition"
O=C(O)CS/C(=C\c1ccc(F)cc1)c1nc2ccccc2s1,inactive,–
O=S(=O)(c1ccccc1)c1nc(-c2ccco2)oc1NCCN1CCOCC1,"inconclusive: 50.1 µM [inhibitor, partial curve]",–
O=C(c1ccncc1)N1N=C(c2ccc(Cl)cc2)CC1c1ccccc1O (stereo not given),active: 20 µM,–
COc1ccccc1NS(=O)(=O)c1cccc(NC(=O)c2ccc3ccccc3n2)c1,"inconclusive: 89.1 µM [inhibitor, single point]",–
CCCCC(=O)Nc1ccc(C(=O)NNC(=O)c2ccc(C)c(Br)c2)cc1,"inconclusive: 79.4 µM [inhibitor, single point]",–
O=C(C[n+]1cc(-c2ccccc2)n2c1CCCCC2)c1ccc(Br)cc1,active: 50.1 µM,–
O=C(c1cccs1)N1CCN(C/C=C/c2ccccc2)CC1,–,inactive: -1.8% [at 2.33 µM]
COc1cc(CN(CCN(C)C)Cc2ccccc2)ccc1OCc1ccccc1,active: 31.6 µM,–
Clc1ccc(C2=NNC(=NCC3CCCO3)SC2)cc1 (stereo not given),"inconclusive: 20 µM [inhibitor, single point]",–
CCOc1ccccc1Nc1ccc(C(=O)O)cc1[N+](=O)[O-],"inconclusive: 50.1 µM [inhibitor, partial curve, poor fit]",–
COc1ccccc1NC(=O)c1ccc2c(c1)C(=O)N(Cc1ccco1)C2=O,"inconclusive: 79.4 µM [inhibitor, single point]",–
Cc1ccc(C(=O)CCC(=O)N2CCN(C(=O)c3ccco3)CC2)cc1,inactive,–
CCN1/C(=C/c2ccc3ccc(C)cc3[n+]2CC)Sc2ccccc21,"inconclusive: 28.2 µM [inhibitor, single point]",–
CCc1nc(C)cn1S(=O)(=O)c1cc(Br)ccc1OC,"inconclusive: 100 µM [inhibitor, partial curve, poor fit]",–
Cc1cc(C)c2c(=O)[nH]c(=O)n(Cc3ccccc3)c2n1,"inconclusive: 20 µM [inhibitor, single point]",–
CCC1CCCCN1S(=O)(=O)c1ccc(NC(=O)C2CCN(C(=O)c3ccco3)CC2)cc1 (stereo not given),"inconclusive: 89.1 µM [inhibitor, single point]",–
CCc1ccc(-n2c(C)nc3cc(C(=O)NCCc4ccccc4)ccc32)cc1,"inconclusive: 31.6 µM [inhibitor, partial curve, poor fit]",–
CC1CN(CCCSc2ccc(Cl)cc2)CC(C)O1 (stereo not given),"inconclusive: 10 µM [inhibitor, full curve, poor fit]",–
CNC(=O)C(C)Sc1ccc(S(=O)(=O)N2CCOCC2)cn1 (stereo not given),"inconclusive: 35.5 µM [inhibitor, single point]",–
CN(C)c1ccc(CN(CC2CCCO2)C(=O)COc2ccc(Cl)cc2)cc1 (stereo not given),active: 14.1 µM,–
CCC(C(=O)NC(C)CCc1ccco1)n1nc(C)n2c(cc3occc32)c1=O (stereo not given),"inconclusive: 39.8 µM [inhibitor, single point]",–
COc1ccc(CCNc2ccc(S(N)(=O)=O)cn2)cc1,"inconclusive: 3.55 µM [inhibitor, partial curve, poor fit]",–
CC(C)n1nc(C(=O)NNC(=O)c2ccncc2)c2ccccc2c1=O,"inconclusive: 17.8 µM [inhibitor, partial curve]",–
O=S(=O)(c1cccs1)N1CCN(c2ccccc2F)CC1,"inconclusive: 79.4 µM [inhibitor, single point]",–

Structure (SMILES),Potency,"activity, negative = inhibition"
Cc1oc(-c2ccc3ccccc3c2)nc1CN(C)C(C)c1ccncn1 (stereo not given),"inconclusive: 50.1 µM [inhibitor, partial curve]",–
CC(C)CN(C(=O)CSc1n[nH]c(-c2cccs2)n1)C1CCS(=O)(=O)C1 (stereo not given),"inconclusive: 25.1 µM [inhibitor, single point]",–
Cc1ccc(-c2cc(C(=O)Nc3ccccn3)c3ccccc3n2)o1,active: 4.47 µM,–
CCCCn1c(SCC(=O)Nc2cccc(C)n2)nnc1-c1ccco1,"inconclusive: 89.1 µM [inhibitor, single point]",–
Cc1ccc(CNC(=O)CS(=O)CC(=O)O)cc1 (stereo not given),"inconclusive: 25.1 µM [inhibitor, single point]",–
CC(=O)c1ccccc1NC(=O)c1ccc(N2CCCC2=O)cc1,"inconclusive: 39.8 µM [inhibitor, partial curve, poor fit]",–
O=C(OC(C(=O)Nc1ccc([N+](=O)[O-])cc1Br)c1ccccc1)c1ccccc1 (stereo not given),"inconclusive: 11.2 µM [inhibitor, full curve, poor fit]",–
Cc1ccc(-n2c(C)c(C)c3c(N)ncnc32)cc1,"inconclusive: 70.8 µM [inhibitor, single point]",–
CCc1nnc(N2C(=O)c3ccc(Oc4ccc([N+](=O)[O-])cc4)cc3C2=O)s1,"inconclusive: 89.1 µM [inhibitor, single point]",–
CCc1ccc(CNC(=O)CSCc2cnn(-c3ccccc3)c2-n2cccc2)cc1,inactive,–
Cc1ccc(-n2c(C)cc(/C=N/NC(=O)c3ccncc3)c2C)c(C)c1,–,inconclusive: -64.5% [inhibitor]
O=C(CN1CCSCC1)N1CCc2[nH]c3ccc(Br)cc3c2C1,–,inconclusive: -70.8% [inhibitor]
Cc1ccc(Cn2c(=O)c3ccccc3n3c(-c4ccccc4)nnc23)cc1,inactive,–
Nc1nnn(CC(=O)N/N=C/C=C/c2ccccc2)n1,–,inconclusive: -63.2% [inhibitor]
CSc1cccc(NC(=O)CN2C(=O)c3ccccc3S2(=O)=O)c1,"inconclusive: 89.1 µM [inhibitor, single point]",–
N#CC1=C(N)C(C#N)(C#N)[C@H](c2ccoc2)[C@H]2CN(Cc3ccccc3)CC=C12,"inconclusive: 7.08 µM [inhibitor, single point]",–
Cc1ccc(Cl)cc1NC(=O)CCS(=O)(=O)c1ccc(Br)s1,inactive,–
COc1cccc2c1Oc1cc([N+](=O)[O-])cc(N(C)C(C)=O)c1C=C2,inactive,–
COc1cccc(-c2nc(CS(=O)CC(=O)N3CCN(c4cccc(C(F)(F)F)c4)CC3)c(C)o2)c1 (stereo not given),"inconclusive: 20 µM [inhibitor, partial curve, poor fit]",–
Cc1ccc(NC(=S)NCC23C=CC(O2)C2C(=O)N(c4ccc(C)cc4)C(=O)C23)cc1 (stereo not given),active: 7.94 µM,–
Cc1noc(/C=C/N(C)C)c1S(=O)(=O)N1CCCC(C(=O)NCc2ccco2)C1 (stereo not given),"inconclusive: 89.1 µM [inhibitor, single point]",–
COc1ccccc1N1CCN(C(=O)CSc2nc3ccccc3o2)CC1,–,inconclusive: -104% [inhibitor]
CN(C(=S)Nc1ccccc1)c1ccccc1,inactive,–
Cc1ccc(C2=NN(CC(=O)O)C(=O)CC2)cc1,active: 44.7 µM,–

Structure (SMILES),Potency,"activity, negative = inhibition"
Cc1cc(C)c(C#N)c(SCC(=O)N(CC(C)C)C2CCS(=O)(=O)C2)n1 (stereo not given),"inconclusive: 79.4 µM [inhibitor, partial curve, poor fit]",–
COc1cccc(C(=O)/C=C/Nc2ccc(S(=O)(=O)Nc3onc(C)c3C)cc2)c1,"inconclusive: 31.6 µM [inhibitor, single point]",–
COc1ccc(OC)c(CNS(=O)(=O)c2ccc(-c3cc(C(F)(F)F)on3)s2)c1,inactive,–
Cc1ccccc1OCCC(=O)OCC(=O)N(C)c1c(N)n(Cc2ccccc2)c(=O)[nH]c1=O,active: 44.7 µM,–
CCOC(=O)c1noc2ncn(CC(=O)O)c(=O)c12,"inconclusive: 22.4 µM [inhibitor, single point]",–
CC(=O)Nc1ccc(S(=O)(=O)N2CCN(CCCOc3cc(C)ccc3C)CC2)cc1,–,inactive: -3.97% [at 12.7 µM]
COc1ccc(S(=O)(=O)N2CCOCC2)cc1NC(=O)Cc1coc2cc(C)ccc12,"inconclusive: 50.1 µM [inhibitor, partial curve]",–
CCn1ccnc1CN(C)C(=O)CCc1nnc(CCC2CCCCC2)o1,"inconclusive: 35.5 µM [inhibitor, partial curve, poor fit]",–
O=C(COc1ccc(Cl)cc1)NC1=NN(c2ccccc2)C(=O)C1,inactive,–
Cc1ccc2[nH]cc(CCNC(=O)Nc3ccccc3)c2c1,"inconclusive: 89.1 µM [inhibitor, single point]",–
O=C(NNC(=O)c1ccc(Br)cc1)c1ccncc1,–,inactive: -33.5% [at 0.501 µM]
CCc1ccc(C2c3c(n[nH]c3C)C(=O)N2c2ccc(C)cc2)cc1 (stereo not given),inactive,–
N#Cc1c(C#N)c(O)c2ccccc2c1O,active: 2 µM,–
COCCNC(=O)CSc1nc(-c2ccccc2)c(-c2ccccc2)o1,–,inconclusive: -59.1% [inhibitor]
Cc1ccc(N2CCN(C(=O)c3nn(C)c4c3CSc3ccccc3-4)CC2C)cc1 (stereo not given),inactive,–
Cc1cc(-c2cc(-c3ccc(Cl)cc3)nc(N)c2C#N)co1,"inconclusive: 1.78 µM [inhibitor, full curve, poor fit]",–
Cc1cnc(NC(=O)CSc2ccc(Cl)cc2)s1,–,inactive: 48.8% [at 12.7 µM]
CCc1nnc(NC(=O)CN2CCN(c3cccc(OC)c3)CC2)s1,active: 14.1 µM,–
Cc1c(C#N)c(NC(=O)CCl)n(Cc2ccc(F)cc2)c1C,"inconclusive: 39.8 µM [inhibitor, partial curve, poor fit]",–
O=S(=O)(Nc1nc2n(n1)C(c1ccccc1)C=C(c1ccc(Cl)cc1)N2)c1ccccc1 (stereo not given),"inconclusive: 3.98 µM [inhibitor, partial curve]",–
C=CCN1C(=O)/C(=C\C=C2\N(C)c3ccccc3C2(C)C)SC1=S,active: 15.8 µM,–
COCCn1nnnc1C(c1cccc(C#N)c1)N1CCCCCC1 (stereo not given),active: 44.7 µM,–
